Laboratory results reported in US20250002581A1.

Target: PD1 (human) (UniProt Q15116)
Assay: flow cytometry on 293T-PD1 cells, antibody 10 ng/ml

UniProt Q15116, sequence (Q15116 25-288): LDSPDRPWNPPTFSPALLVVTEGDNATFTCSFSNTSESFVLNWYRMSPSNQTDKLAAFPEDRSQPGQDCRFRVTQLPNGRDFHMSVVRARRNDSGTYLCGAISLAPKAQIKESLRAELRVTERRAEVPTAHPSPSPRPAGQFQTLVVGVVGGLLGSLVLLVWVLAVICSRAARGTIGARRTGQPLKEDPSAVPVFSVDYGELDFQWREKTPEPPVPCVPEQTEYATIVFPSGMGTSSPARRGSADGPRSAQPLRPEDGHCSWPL

293T-PD1 (%): 1.58%
B1: hufrCH101-IgG4 (antibody)
heavy: QVQLQESGPGLVKPSETLSLTCTVSGYSITSGFAWHWIRQPPGKGLEWIGYIHYSGSTNYNPSLKSRVTISVDTSKNQFSLKLSSVTAADTAVYYCARSDFWGQGTLVTVSSASTKGPSVFPLAPCSRSTSESTAALGCLVKDYFPEPVTVSWNSGALTSGVHTFPAVLQSSGLYSLSSVVTVPSSSLGTKTYTCNVDHKPSNTKVDKRV[not shown - human IgG4 Fc with S228P (EU numbers)]
light: DVVMTQSPLSLPVTLGQPASISCTSSQSLLDRDGETFMNWFQQRPGQSPRRLIYLVSKLDFGVPDRFSGSGSGTDFTLKISRVEAEDVGVYYCWQGTHFPLTFGGGTKVEIKRTVAAPSVFIFPPSDEQLKSGTASVVCLLNNFYPREAKVQWKVDNALQSGNSQESVTEQDSKDSTYSLSSTLTLSKADYEKHKVYACEVTHQGLSSPVTKSFNRGEC
